Results: PubChem BioAssay AID1745853 (National Center for Advancing Translational Sciences (NCATS), 2022)
The list shows a part of the results. Further columns of the screen follow, without active or inactive calls.

What was measured:
Test in all cases: Primary Screen for Target Class Profiling of Small Molecule Inhibitors of Methyltransferases
[1] = molecular target: Glycine N-methyltransferase (Homo sapiens) (UniProt Q14749); settings: purified enzyme, MTase-Glo SAH luminescence; measured here: GNMT inhibition; at 40 µM; stronger effect = lower value
Description: (§1) PI: Matthew D. Hall Ph.D. and Quinlin M. Hanson Ph.D.
(§2) National Center for Advancing Translational Sciences (NCATS)
(§3) National Institute of Health (NIH), Rockville, MD
(§4) Target class profiling (TCP) is a chemical biology approach amenable to investigating understudied biological targets. TCP is achieved by developing a generalizable assay platform and applying it to screen a curated set of compound libraries against representative members of a target class. Small molecule methyltransferases (SMMTase) are a subclass of methyltransferase that act on metabolites to modulate signaling pathways, metabolize xenobiotics, or balance the available methyl pool. We screened four curated libraries totaling 27,574 unique compounds against the SMMTases nicotinamide N-methyltransferase (NNMT), phenylethanolamine N-methyltransferase (PNMT), histamine N-methyltransferase (HNMT), glycine N-methyltransferase (GNMT), catechol O-methyltransferase (COMT), and guanidinoacetate N-methyltransferase (GAMT). The data generated by this TCP can be leveraged for informed tool molecule development. For example, in the associated publication we identified a chemotype of HNMT-selective inhibitors. Additionally, we identified a putative SMMTase-selective inhibitor with potential as a tool molecule for studying broader methyltransferase biology.
(§5) High-through put screening assays were developed at the National Center for Advancing Translational Science (NCATS) for the enzymes NNMT, PNMT, HNMT, GNMT, COMT, and GAMT. Enzymatic activity was measured as a function of SAM cofactor conversion using the MTase Glo kit (Promega) for all enzymes. All assays were performed in 1536-well format with substrates and SAM concentrations at KM values. Enzyme concentration and assay timing were optimized for 10-20% SAM conversion. Initial screening of 27,574 compounds was done as single-point assays using the highest compound concentration (40 uM). […] These compounds were replated in 11-point dose response and assayed against NNMT, PNMT, HNMT, GNMT, COMT, GAMT, and a counter-assay. The IC50 and efficacy (maximal response) values were determined for each dose-response curve. These values are also accounted for in the area under the curve (AUC) values.
(§6) PROTOCOL TABLE (as described by Inglese J, Shamu CE and Guy RK. 2007)
(§7) SEQUENCE No. (e.g., 1, 2, 3, etc.); […] (e.g., Cells, Incubation, Reagent, etc.); VALUE; DESCRIPTION.
(§8) 1; Reagent; 2 uL; SMMTase Enzyme (2x) in reaction buffer, columns 1- 48.
(§9) 2; Reagent; 1 uL; SAM (4x) in reaction buffer, columns 1-48.
(§10) 3; Controls; 23 nL; DMSO in column 4; sinefungin in DMSO (0 uM - 40 uM) in 7-point 1:2 dilution series (n = 2) in column 2.
(§11) 4; Compounds; 23 nL; Columns 5-48.
(§12) 5; Reagent; 1 uL; Substrate (4x) in reaction buffer, columns 2-48.
(§13) 6; Time; 20-30 min; Incubation.
(§14) 7; Reagent; 1 uL; MTase-Glo reagent (5X), columns 1-48.
(§15) 8; Time; 30 min; Incubation.
(§16) 9; Reagent; 5 uL; MTase-Glo Detection reagent, columns 1-48.
(§17) 10; Time; 30 min; Incubation, luminescence evolution.
(§18) 11; Detection; Luminescence; ViewLux uHTS Microplate Imager (PerkinElmer).
(§19) NOTES (numbers refer to Sequence numbers above)
(§20) 1, 2, 5. White Medium Binding Greiner 1536-well plates (Cat #789175-F, Greiner Bio-One, Monroe, NC); Reaction buffer: 50 mM Tris, pH 8.0, 3 mM MgCl2, 1 mM EDTA, 50 mM NaCl, 1 mM DTT, and 0.1 mg/mL BSA. Evaporation was prevented by covering assay plates with metal lids containing holes to allow gas diffusion.
(§21) 1. Six SMMTase were profiled: HNMT, GNMT, PNMT, COMT, NNMT, GAMT
(§22) 5. The corresponding substrate was used for each enzyme: HNMT - 5.3 uM Histamine; GNMT - >500 uM Glycine; PNMT - 16.2 uM Norephinephrine; COMT - 13.7 uM Norephinephrine; NNMT - 3.8 uM Nicotinamide; GAMT - 2.5 uM Guanidinoacetate.6, 8, 10. Room temperature
(§23) 6. Final reaction conditions: 10 nM COMT, 5 uM SAM, 15 uM norepinephrine, 50 mM Tris, pH 8.0, 3 mM MgCl2, 1 mM EDTA, 50 mM NaCl, 1 mM DTT, and 0.1 mg/mL BSA; refer to tables 2 and S1 for specific timing.
8. […]

[2] = molecular target: Guanidinoacetate N-methyltransferase (Homo sapiens) (UniProt Q14353); settings: purified enzyme, MTase-Glo SAH luminescence; measured here: GAMT inhibition; at 40 µM; stronger effect = lower value
Description: as §1, §2, §3, §4, §5, §6, §7, §8, §9, §10, §11, §12, §13, §14, §15, §16, §17, §18, §19, §20, §21, §22, §23
8. […]

[3] = molecular target: Histamine N-methyltransferase (Homo sapiens) (UniProt P50135); settings: purified enzyme, MTase-Glo SAH luminescence; measured here: HNMT inhibition; at 40 µM; stronger effect = lower value
Description: as §1, §2, §3, §4, §5, §6, §7, §8, §9, §10, §11, §12, §13, §14, §15, §16, §17, §18, §19, §20, §21, §22, §23
8. […]

[4] = molecular target: Nicotinamide N-methyltransferase (Homo sapiens) (UniProt P40261); settings: purified enzyme, MTase-Glo SAH luminescence; measured here: NNMT inhibition; at 40 µM; stronger effect = lower value
Description: as §1, §2, §3, §4, §5, §6, §7, §8, §9, §10, §11, §12, §13, §14, §15, §16, §17, §18, §19, §20, §21, §22, §23
8. […]

[5] = molecular target: Phenylethanolamine N-methyltransferase (Homo sapiens) (UniProt P11086); settings: purified enzyme, MTase-Glo SAH luminescence; measured here: PNMT inhibition; at 40 µM; stronger effect = lower value
Description: as §1, §2, §3, §4, §5, §6, §7, §8, §9, §10, §11, §12, §13, §14, §15, §16, §17, §18, §19, §20, §21, §22, §23
8. […]
On the % scale 0 is the no-effect control and ±100 the full control effect.

Structure (SMILES)	activity change, negative = inhibition [1] [%]	activity change, negative = inhibition [2] [%]	activity change, negative = inhibition [3] [%]	activity change, negative = inhibition [4] [%]	activity change, negative = inhibition [5] [%]
CCOC(=O)c1cc2n(n1)CC(C)(C(=O)NC1CCCC1)N(Cc1ccc(CC)cc1)C2=O (stereo not given)	-2.44	0	5.89	-0.243	1.98
CC(C)NCC(O)COc1ccc(CC(N)=O)cc1 (stereo not given)	2.54	5.1	4.58	-7.11	2.01
CCCCNc1ncc(C(=O)NCc2ccc(-n3ccnc3)cc2)c(NC2CCC(O)CC2)n1 (stereo not given)	-15.1	-10.3	-45.3	-64.5	-35.5
CCNC(=O)[C@@H]1C[C@H](n2cc(CN(C)C(=O)c3cccc(C)c3C)nn2)CN1	0.019	0.836	0.07	-0.42	-12.2
CN(Cc1ccccc1)C(=O)c1ncn2c1C(=O)N(C1CC1)C(C)(C(=O)NCc1ccccc1Cl)C2 (stereo not given)	-0.79	0	5.33	1.71	5.15
C/C=C1\[C@H](O[C@@H]2O[C@H](CO)[C@@H](O)[C@H](O)[C@H]2O)OC=C(C(=O)OC)[C@H]1CC(=O)OC[C@H]1O[C@@H](OCCc2ccc(O)cc2)[C@H](O)[C@@H](O)[C@@H]1O	-2.74	-6.25	4.61	-15.4	-4.56
CC(C)n1c(=O)c2ccc(C(=O)NC3CCCC3)cc2n2c(=O)[nH]nc12	-7.74	3.13	-2.14	-4.52	-12.1
CCCn1c(=O)c2ccc(C(=O)NCC(C)C)cc2n2c(=O)n(Cc3ccccc3F)nc12	3.71	1.29	7.65	0.965	3.57
CCc1ccc(CNC(=O)c2cc3n(n2)CC(C)(C(=O)NCc2ccc(F)cc2)N(C)C3=O)cc1 (stereo not given)	0.403	-2.37	-6.83	3.2	0.901
CC1(C)CC[C@]2(C(=O)O)CC[C@]3(C)C(=CCC4[C@@]5(C)CC[C@H](O[C@H]6O[C@H](C(=O)O)[C@@H](O)[C@H](O[C@@H]7O[C@H](CO)[C@H](O)[C@H](O)[C@H]7O)[C@H]6O)C(C)(C)C5CC[C@]43C)[C@@H]2C1 (stereo not given in full)	-0.494	-2.14	8.6	-13.8	-2.45
O=C1N(Cc2cccc(F)c2F)CCCC1(O)CNCc1ccccc1 (stereo not given)	-6.85	0.069	-1.76	-4.22	-2.94
CC1CCCC(NC(=O)C2(C)Cn3c(nc4ccccc43)C(=O)N2Cc2cccc(Cl)c2)C1C (stereo not given)	7.32	0.607	7.84	8.55	3.47
CCCn1c(=O)c2cc(Cl)ccc2n2c(SCC(=O)Nc3ccccc3C)nnc12	-12	2.65	5.98	-3.67	1.43
O=C(C1CCCN1C(=O)C1CC1)N1CCCC(c2nc3ncccc3[nH]2)C1 (stereo not given)	-6.26	-8.19	-3.78	-16.7	-8.71
COC(=O)[C@H](NC(=O)[C@@H]1[C@@H](NC(=O)Nc2cccc(OC)c2)CCN1C(=O)c1cnccn1)C(C)C	-0.632	-4.01	-2.08	-0.812	-2.21
